The source of these data is PubChem BioAssay AID1508642 (National Center for Advancing Translational Sciences (NCATS), 2021).

About 200 (0.47%) of roughly 43,000 compounds were called active. About 12% were inconclusive and are not listed. The call rests on the fitted dose curve; in most records, active means well fitted cell-killing curve with a large enough effect; inconclusive means small, poorly fitted or top-dose-only effect, or effect the other way; inactive means flat fitted curve, though single readings scatter. The list shows a part of the results.
On the % scale 0 is the no-effect control and ±100 the full control effect.

The experiment in a line: Cell viability qHTS assay in S16 Pmp22-F2sN cells. Further: nearly all actives have a fitted effect of over 65% in size. As to conditions: S16 Pmp22-F2sN Schwann cells viability, CellTiter-Glo, 24 h; series mostly up to 57.5 µM; activity change, negative = cytotoxicity: at the top concentration. In a few lines:
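Viability was measured by CellTiter-Glo luminescence (15 min, room temperature). This followed 24 h at 37 °C of compound exposure (23 nL pin transfer) in S16 Pmp22-F2sN Schwann cells, 500-1,000 per well.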
(qHTS replaces the single test concentration by a dilution series.)
In the case of `CCN(CC)S(=O)(=O)c1ccc2c(c1)N(CC(=O)NCCc1ccc(OC)c(OC)c1)C(=O)CO2`, the “activity change, negative = cytotoxicity” value was inactive: -3.01%.

`CCOc1ccccc1NC(=O)c1cn(C2CCCC2)c(=O)c2c1c1ccccc1n2C`: the “activity change, negative = cytotoxicity” value is inactive: 7.27%.

With `COc1ccccc1NC(=O)C1=C(C)Nc2nc(SCc3ccccc3)nn2C1c1ccccn1` (configuration not stated), the “activity change, negative = cytotoxicity” value is inactive: 16.7%.

Turning to `Brc1ccccc1-n1ncc2c1ncn1nc(Cc3ccccc3)nc21`, the “activity change, negative = cytotoxicity” value is inactive: 9.09%.

As to `Cc1ccc2c(c1)N(C(=O)CCC(=O)Nc1ccccc1Cl)CC(C)O2` (configuration not stated), the “activity change, negative = cytotoxicity” value was inactive: -7.37%.

With `O=c1cc(CSc2ncn[nH]2)[nH]c2c(Cl)cccc12`, the “activity change, negative = cytotoxicity” value was inactive: 14.7%.

Regarding `CCN(CC)c1ccc(C(=O)NCc2ccc3c(c2)CCN3C(=O)c2ccccc2)cc1`, the “activity change, negative = cytotoxicity” value was inactive: -0.353%.

As to `CC1CCCN(C(=O)Cn2c(=O)oc3cc(S(=O)(=O)N4CCCCC4)ccc32)C1` (configuration not stated), the “activity change, negative = cytotoxicity” value is inactive: -15.5%.

For the compound `O=C(CSc1nnc(NC(=O)NC2CCCCC2)s1)Nc1ccccc1F`, the “activity change, negative = cytotoxicity” value was inactive: 10.3%.

In the case of `CCOC(=O)c1c(C)[nH]c(C)c1S(=O)(=O)NCC(=O)Nc1cccc(C(F)(F)F)c1`, the “activity change, negative = cytotoxicity” value is inactive: -17.5%.

Consider `Cc1oc2c(c1C(=O)NCc1cccc(Br)c1)C1=NCCN1C=N2`, for which the “activity change, negative = cytotoxicity” value is inactive: 2.6%.

With `Cc1ccc(CNC(=O)CCCn2c(=O)c3ccccc3n(CC(=O)C(C)(C)C)c2=O)cc1`, the “activity change, negative = cytotoxicity” value was inactive: 9.57%.

Consider `CCOC(=O)Cn1c(=O)n(CC2CCCO2)c2nc(-c3ccc(OC)cc3OC)nc(C(N)=O)c21` (configuration not stated), for which the “activity change, negative = cytotoxicity” value was inactive: 9.03%.

On to `Cc1cccc(NC(=O)NCCn2c(=O)oc3ccc(C)cc32)c1`, for which the “activity change, negative = cytotoxicity” value was inactive: -6.04%.

In the case of `Cc1ccc(C)c(N2CCN(C(=O)c3cnc4c(-c5ccccc5)c(C)nn4c3C)CC2)c1`, the “activity change, negative = cytotoxicity” value is inactive: -0.492%.

As to `Cc1ccc(/C=C(\C#N)C(=O)Nc2cc(C)ccc2C)cc1`, the “activity change, negative = cytotoxicity” value was inactive: 10.5%.

As for `COc1cccc(CNC(=O)CN2C(=O)N(c3cc(C)ccc3C)S(=O)(=O)c3ccccc32)c1OC`, the “activity change, negative = cytotoxicity” value is inactive: 0.731%.

For the compound `Cc1ccc(C)c(CN2C(=O)c3ccccc3S(=O)c3ccc(C(=O)NCc4ccccc4Cl)cc32)c1` (configuration not stated), the “activity change, negative = cytotoxicity” value is inactive: 5.03%.

Regarding `COc1ccc(CNC(=O)CN(c2ccc(C)cc2)S(=O)(=O)c2c(C)n[nH]c2C)cc1`, the “activity change, negative = cytotoxicity” value is inactive: 13%.

`COc1ccc2oc(=O)c(-c3csc(/C(C#N)=C/c4ccc(F)cc4)n3)cc2c1`: the “activity change, negative = cytotoxicity” value is inactive: 8.15%.

For the compound `COc1ccccc1N1CCN(C(=O)C2CCN(S(=O)(=O)c3cnc[nH]3)CC2)CC1`, the “activity change, negative = cytotoxicity” value was inactive: 14%.

As for `CCOc1ccc(NC(=O)Cn2c(=O)n(-c3ccc(C)cc3)c(=O)c3cc(OC)c(OC)cc32)cc1`, the “activity change, negative = cytotoxicity” value is inactive: 3.02%.

For the compound `CCOc1ccc(NC(=O)CCS(=O)(=O)c2cc3c4c(c2)CCN4C(=O)CC3)cc1`, the “activity change, negative = cytotoxicity” value was inactive: -17.2%.

Regarding `CCc1ccccc1NC(=O)CCc1c(C)nc2cc(-c3ccccc3)nn2c1C`, the “activity change, negative = cytotoxicity” value is inactive: 2.8%.

Turning to `CCOC(=O)c1cc2c(=O)n3ccccc3nc2n(CC(C)C)c1=NC(=O)C(C)Oc1ccccc1` (configuration not stated), the “activity change, negative = cytotoxicity” value was inactive: -17%.

On to `CC(=O)Nc1ccc(NCc2nnc3n2CCCCC3)cc1`, for which the “activity change, negative = cytotoxicity” value is inactive: 11.4%.

On to `O=C(NC1CC(=O)N(c2ccc(Cl)cc2)C1)C(=O)c1c[nH]c2ccccc12` (configuration not stated), for which the “activity change, negative = cytotoxicity” value was inactive: 1.19%.

Regarding `Cc1ccccc1NC(=O)Cn1c(=O)n(CCCCCC(=O)NCc2ccc3c(c2)OCO3)c(=O)c2sccc21`, the “activity change, negative = cytotoxicity” value is inactive: -5.27%.

For the compound `Cc1c(Cl)cccc1NC(=O)CSc1nc(=O)n(CCN2CCOCC2)c2c1CCC2`, the “activity change, negative = cytotoxicity” value is inactive: -3.57%.

For `CCOc1ccc(NC(=O)c2sc3nc(-c4ccc(OC)cc4)cn3c2C)cc1`, the “activity change, negative = cytotoxicity” value is inactive: 2.22%.

As for `COc1ccc(-n2ccn(CC(=O)Nc3ccccc3C(F)(F)F)c(=O)c2=O)cc1OC`, the “activity change, negative = cytotoxicity” value was inactive: -23.5%.

Take `COc1cc(NC(=O)C2CCCN(S(=O)(=O)c3cn(C)cn3)C2)cc(OC)c1` (configuration not stated): the “activity change, negative = cytotoxicity” value is inactive: -1.91%.

In the case of `COc1ccc(-c2nsc(NC(=O)c3ccccc3Br)n2)cc1`, the “activity change, negative = cytotoxicity” value was inactive: 3.23%.

`CCc1cccc2c(-c3ccccc3)nc(SCC(=O)Nc3ccc(OC)cc3)nc12`: the “activity change, negative = cytotoxicity” value was inactive: -5.47%.

Consider `N#Cc1ccccc1Cn1c(SCC(=O)NCc2ccccc2)nc2ccccc21`, for which the “activity change, negative = cytotoxicity” value is inactive: 12.9%.

For `CC(C)N(Cc1ccccc1)S(=O)(=O)c1ccc(N2CCCCS2(=O)=O)cc1`, the “activity change, negative = cytotoxicity” value is inactive: 4.73%.

With `Cc1cc2nn(-c3ccccc3)nc2cc1NC(=O)Cc1ccc(Cl)cc1`, the “activity change, negative = cytotoxicity” value is inactive: 0.956%.

In the case of `CN(C)S(=O)(=O)c1ccc(C(=O)N(Cc2cccnc2)c2nc3c(F)cc(F)cc3s2)cc1`, the “activity change, negative = cytotoxicity” value is inactive: 18.7%.

Take `O=C(Cn1c(=O)c2cccn2c2ccc(F)cc21)NCc1cccc(Cl)c1`: the “activity change, negative = cytotoxicity” value is inactive: 14.2%.

As for `Cc1cn2c(=O)cc(COc3ccc(C(C)(C)C)cc3)nc2s1`, the “activity change, negative = cytotoxicity” value was inactive: -11%.

Turning to `CC(C)CCn1c(SCc2c(F)cccc2Cl)nc2ccsc2c1=O`, the “activity change, negative = cytotoxicity” value is inactive: -0.873%.

Regarding `CC(C)NC(=O)CCSc1nc(-c2ccc3c(c2)OCO3)cc(C(F)(F)F)n1`, the “activity change, negative = cytotoxicity” value was inactive: 7.08%.

For `Cc1cccc(C)c1NC(=O)CSc1nc(-c2cccs2)cc(C(F)(F)F)n1`, the “activity change, negative = cytotoxicity” value is inactive: 9.17%.

Regarding `CCOc1ccccc1N(CC)C(=O)c1ccc2c(=O)n3c(nc2c1)CCCCC3`, the “activity change, negative = cytotoxicity” value is inactive: -7.83%.

`O=C(Nc1ccc(F)c(Cl)c1)C1CCCN(S(=O)(=O)c2cccc3nsnc23)C1` (configuration not stated): the “activity change, negative = cytotoxicity” value was inactive: -19.8%.

In the case of `COc1cc(NC(=O)Cn2c(-c3ccccc3)cc(C(C)=O)c2C)cc(OC)c1`, the “activity change, negative = cytotoxicity” value was inactive: 10.6%.

As to `COC(=O)c1ccc2c(c1)sc(=NC(=O)c1ccc(S(=O)(=O)N3CCCCC3)cc1)n2C`, the “activity change, negative = cytotoxicity” value is inactive: 6.22%.
